# In the supplement of paper PMC8728848:
# The list shows a part of the results.
# Tests used:
# Experiment in all cases: glycan array binding signal (z-score within array); higher = stronger binding
# Conditions in all cases: glycan notation: IUPAC condensed, linker removed
# Gal(a1-3)Gal(b1-4)GlcNAc = target: Gal(a1-3)Gal(b1-4)GlcNAc
# Summary of the method: (§1)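 Glycan array data were curated from 3228 arrays in the Consortium for Functional Glycomics database and kept only where the protein sequence was available. Glycan names were converted to IUPAC-condensed notation, and columns mapping to the same glycan were averaged. The binding signal is a within-array Z-score, averaged across arrays of the same protein sequence at different concentrations or buffers and across linkers. Negative Z-scores can be read as non-binding.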
# [1] = target: Gal(a1-3)Gal(b1-4)GlcNAc(b1-2)Man
# Summary of the method: as §1
# [2] = target: Gal(a1-3)Gal(b1-4)GlcNAc(b1-2)Man(a1-3)[Gal(a1-3)Gal(b1-4)GlcNAc(b1-2)Man(a1-6)]Man(b1-4)GlcNAc(b1-4)GlcNAc
# Summary of the method: as §1
# [3] = target: Gal(a1-3)Gal(b1-4)GlcNAc(b1-3)GalNAc
# Summary of the method: as §1
# [4] = target: Gal(a1-3)Gal(b1-4)GlcNAc(b1-6)GalNAc
# Summary of the method: as §1
# [5] = target: Gal(a1-3)Gal(b1-4)[Fuc(a1-3)]GlcNAc
# Summary of the method: as §1
# [6] = target: Gal(a1-3)Gal(b1-4)[Fuc(a1-3)]GlcNAc(b1-2)Man(a1-3)[Gal(a1-3)Gal(b1-4)[Fuc(a1-3)]GlcNAc(b1-2)Man(a1-6)]Man(b1-4)GlcNAc(b1-4)GlcNAc
# Summary of the method: as §1
# Gal(a1-3)GalNAc = target: Gal(a1-3)GalNAc
# Summary of the method: as §1
# [7] = target: Gal(a1-3)[Gal(a1-4)]Gal(b1-4)GlcNAc
# Summary of the method: as §1
# [8] = target: Gal(a1-4)Gal(b1-3)GlcNAc(b1-2)Man(a1-3)[Gal(a1-4)Gal(b1-3)GlcNAc(b1-2)Man(a1-6)]Man(b1-4)GlcNAc(b1-4)GlcNAc
# Summary of the method: as §1
# Gal(a1-4)Gal(b1-4)Glc = target: Gal(a1-4)Gal(b1-4)Glc
# Summary of the method: as §1
# Gal(a1-4)Gal(b1-4)GlcNAc = target: Gal(a1-4)Gal(b1-4)GlcNAc
# Summary of the method: as §1
# [9] = target: Gal(a1-4)Gal(b1-4)GlcNAc(b1-2)Man(a1-3)[Gal(a1-4)Gal(b1-4)GlcNAc(b1-2)Man(a1-6)]Man(b1-4)GlcNAc(b1-4)GlcNAc
# Summary of the method: as §1
# [10] = target: Gal(a1-4)Gal(b1-4)GlcNAc(b1-3)Gal(b1-4)Glc
# Summary of the method: as §1
# Gal(a1-4)GlcNAc = target: Gal(a1-4)GlcNAc
# Summary of the method: as §1
# Gal(a1-6)Glc = target: Gal(a1-6)Glc
# Summary of the method: as §1
# Gal(b1-2)Gal = target: Gal(b1-2)Gal
# Summary of the method: as §1
# Gal(b1-3)Gal = target: Gal(b1-3)Gal
# Summary of the method: as §1
# Gal(b1-3)Gal(b1-4)GlcNAc = target: Gal(b1-3)Gal(b1-4)GlcNAc
# Summary of the method: as §1
# Gal(b1-3)GalNAc = target: Gal(b1-3)GalNAc
# Summary of the method: as §1
# [11] = target: Gal(b1-3)GalNAc(a1-3)[Fuc(a1-2)]Gal(b1-4)Glc
# Summary of the method: as §1
# [12] = target: Gal(b1-3)GalNAc(a1-3)[Fuc(a1-2)]Gal(b1-4)GlcNAc
# Summary of the method: as §1
# Gal(b1-3)GalNAc(b1-3)Gal = target: Gal(b1-3)GalNAc(b1-3)Gal
# Summary of the method: as §1
# [13] = target: Gal(b1-3)GalNAc(b1-3)Gal(a1-4)Gal(b1-4)Glc
# Summary of the method: as §1
# [14] = target: Gal(b1-3)GalNAc(b1-4)Gal(b1-4)Glc
# Summary of the method: as §1
# [15] = target: Gal(b1-3)GalNAc(b1-4)[Neu5Ac(a2-3)]Gal(b1-4)Glc
# Summary of the method: as §1
# Gal(b1-3)GlcNAc = target: Gal(b1-3)GlcNAc
# Summary of the method: as §1
# [16] = target: Gal(b1-3)GlcNAc(a1-3)Gal(b1-4)GlcNAc
# Summary of the method: as §1
# [17] = target: Gal(b1-3)GlcNAc(a1-6)Gal(b1-4)GlcNAc
# Summary of the method: as §1
# Gal(b1-3)GlcNAc(b1-2)Man = target: Gal(b1-3)GlcNAc(b1-2)Man
# Summary of the method: as §1
# [18] = target: Gal(b1-3)GlcNAc(b1-2)Man(a1-3)[Gal(b1-3)GlcNAc(b1-2)Man(a1-6)]Man(b1-4)GlcNAc(b1-4)GlcNAc
# Summary of the method: as §1
# [19] = target: Gal(b1-3)GlcNAc(b1-2)Man(a1-3)[Gal(b1-3)GlcNAc(b1-2)Man(a1-6)]Man(b1-4)GlcNAc(b1-4)[Fuc(a1-6)]GlcNAc
# Summary of the method: as §1
# [20] = target: Gal(b1-3)GlcNAc(b1-2)Man(a1-3)[GlcNAc(b1-4)][Gal(b1-3)GlcNAc(b1-2)Man(a1-6)]Man(b1-4)GlcNAc(b1-4)GlcNAc
# Summary of the method: as §1
# [21] = target: Gal(b1-3)GlcNAc(b1-2)[Gal(b1-3)GlcNAc(b1-6)]Man(a1-6)[Gal(b1-3)GlcNAc(b1-2)Man(a1-3)]Man(b1-4)GlcNAc(b1-4)GlcNAc
# Summary of the method: as §1
# [22] = target: Gal(b1-3)GlcNAc(b1-3)Gal(b1-3)GlcNAc
# Summary of the method: as §1
# [23] = target: Gal(b1-3)GlcNAc(b1-3)Gal(b1-4)Glc
# Summary of the method: as §1
# [24] = target: Gal(b1-3)GlcNAc(b1-3)Gal(b1-4)GlcNAc
# Summary of the method: as §1
# [25] = target: Gal(b1-3)GlcNAc(b1-3)Gal(b1-4)GlcNAc(b1-2)Man(a1-3)[Gal(b1-3)GlcNAc(b1-3)Gal(b1-4)GlcNAc(b1-2)Man(a1-6)]Man(b1-4)GlcNAc(b1-4)GlcNAc
# Summary of the method: as §1
# [26] = target: Gal(b1-3)GlcNAc(b1-3)Gal(b1-4)GlcNAc(b1-2)[Gal(b1-3)GlcNAc(b1-3)Gal(b1-4)GlcNAc(b1-6)]Man(a1-6)[Gal(b1-3)GlcNAc(b1-3)Gal(b1-4)GlcNAc(b1-2)Man(a1-3)]Man(b1-4)GlcNAc(b1-4)[Fuc(a1-6)]GlcNAc
# Summary of the method: as §1
# [27] = target: Gal(b1-3)GlcNAc(b1-3)Gal(b1-4)GlcNAc(b1-3)Gal(b1-4)GlcNAc(b1-2)[Gal(b1-3)GlcNAc(b1-3)Gal(b1-4)GlcNAc(b1-3)Gal(b1-4)GlcNAc(b1-6)]Man(a1-6)[Gal(b1-3)GlcNAc(b1-3)Gal(b1-4)GlcNAc(b1-3)Gal(b1-4)GlcNAc(b1-2)Man(a1-3)]Man(b1-4)GlcNAc(b1-4)[Fuc(a1-6)]GlcNAc
# Summary of the method: as §1
# [28] = target: Gal(b1-3)GlcNAc(b1-3)Gal(b1-4)GlcNAc(b1-6)[Gal(b1-3)GlcNAc(b1-3)]Gal(b1-4)Glc
# Summary of the method: as §1
# [29] = target: Gal(b1-3)GlcNAc(b1-3)Gal(b1-4)[Fuc(a1-3)]GlcNAc
# Summary of the method: as §1
# [30] = target: Gal(b1-3)GlcNAc(b1-3)Gal(b1-4)[Fuc(a1-3)]GlcNAc(b1-6)[Gal(b1-3)GlcNAc(b1-3)]Gal(b1-4)Glc
# Summary of the method: as §1
# [31] = target: Gal(b1-3)GlcNAc(b1-3)GalNAc
# Summary of the method: as §1
# [32] = target: Gal(b1-3)GlcNAc(b1-6)Gal(b1-4)GlcNAc
# Summary of the method: as §1
binder,measurement,setting,value
CML1 (Coprinopsis cinerea) (protein) MAIFHTGSELFIITRGPGKLTLLTWGGLNNLRSVIGAIPTENTGVTKWAVSFSHNYTRFSFIWEGQGEACYQIGNGLTRSPVGRSWSSSSTIHWGSSTVITEDVTSVVPGAVNRDKVTTAYALPDNL,glycan array binding signal (z-score),Gal(a1-3)Gal(b1-4)GlcNAc,-0.312
same,glycan array binding signal (z-score),[1],-0.347
same,glycan array binding signal (z-score),[2],-0.314
same,glycan array binding signal (z-score),[3],-0.337
same,glycan array binding signal (z-score),[4],-0.353
same,glycan array binding signal (z-score),[5],-0.346
same,glycan array binding signal (z-score),[6],-0.343
same,glycan array binding signal (z-score),Gal(a1-3)GalNAc,-0.31
same,glycan array binding signal (z-score),[7],-0.318
same,glycan array binding signal (z-score),[8],-0.306
same,glycan array binding signal (z-score),Gal(a1-4)Gal(b1-4)Glc,-0.322
same,glycan array binding signal (z-score),Gal(a1-4)Gal(b1-4)GlcNAc,-0.327
same,glycan array binding signal (z-score),[9],-0.317
same,glycan array binding signal (z-score),[10],-0.319
same,glycan array binding signal (z-score),Gal(a1-4)GlcNAc,-0.342
same,glycan array binding signal (z-score),Gal(a1-6)Glc,-0.346
same,glycan array binding signal (z-score),Gal(b1-2)Gal,-0.319
same,glycan array binding signal (z-score),Gal(b1-3)Gal,-0.338
same,glycan array binding signal (z-score),Gal(b1-3)Gal(b1-4)GlcNAc,-0.329
same,glycan array binding signal (z-score),Gal(b1-3)GalNAc,-0.346
same,glycan array binding signal (z-score),[11],-0.312
same,glycan array binding signal (z-score),[12],-0.354
same,glycan array binding signal (z-score),Gal(b1-3)GalNAc(b1-3)Gal,-0.339
same,glycan array binding signal (z-score),[13],-0.371
same,glycan array binding signal (z-score),[14],-0.344
same,glycan array binding signal (z-score),[15],-0.352
same,glycan array binding signal (z-score),Gal(b1-3)GlcNAc,-0.327
same,glycan array binding signal (z-score),[16],-0.32
same,glycan array binding signal (z-score),[17],-0.358
same,glycan array binding signal (z-score),Gal(b1-3)GlcNAc(b1-2)Man,-0.341
same,glycan array binding signal (z-score),[18],-0.268
same,glycan array binding signal (z-score),[19],-0.323
same,glycan array binding signal (z-score),[20],-0.32
same,glycan array binding signal (z-score),[21],-0.331
same,glycan array binding signal (z-score),[22],-0.306
same,glycan array binding signal (z-score),[23],-0.323
same,glycan array binding signal (z-score),[24],-0.339
same,glycan array binding signal (z-score),[25],-0.318
same,glycan array binding signal (z-score),[26],-0.296
same,glycan array binding signal (z-score),[27],-0.326
same,glycan array binding signal (z-score),[28],-0.321
same,glycan array binding signal (z-score),[29],0.476
same,glycan array binding signal (z-score),[30],-0.31
same,glycan array binding signal (z-score),[31],-0.337
same,glycan array binding signal (z-score),[32],-0.35
